Where “and” joins values, the source holds several entries; their conditions need not be identical. Identical values can stand only once. Whole data set: some 110,000 compounds, median “z-score” near -0.1, cut for the highest 2% near 2. Some of the results follow.
molecular target: Metabotropic glutamate receptor 8 (Rattus norvegicus) (UniProt P70579); assay: rat mGluR8 modulators via GIRK flux, primary screen, cell-based, thallium flux, HTS (AID 488969); settings: HEK293 rat mGluR8, GIRK (G protein-gated inwardly rectifying potassium channel) thallium flux, FluoZin2; at 10 µM; stronger effect = higher value; submaximal glutamate (EC20) added with thallium
Chain of UniProt P70579 (P70579 whole entry, looked up): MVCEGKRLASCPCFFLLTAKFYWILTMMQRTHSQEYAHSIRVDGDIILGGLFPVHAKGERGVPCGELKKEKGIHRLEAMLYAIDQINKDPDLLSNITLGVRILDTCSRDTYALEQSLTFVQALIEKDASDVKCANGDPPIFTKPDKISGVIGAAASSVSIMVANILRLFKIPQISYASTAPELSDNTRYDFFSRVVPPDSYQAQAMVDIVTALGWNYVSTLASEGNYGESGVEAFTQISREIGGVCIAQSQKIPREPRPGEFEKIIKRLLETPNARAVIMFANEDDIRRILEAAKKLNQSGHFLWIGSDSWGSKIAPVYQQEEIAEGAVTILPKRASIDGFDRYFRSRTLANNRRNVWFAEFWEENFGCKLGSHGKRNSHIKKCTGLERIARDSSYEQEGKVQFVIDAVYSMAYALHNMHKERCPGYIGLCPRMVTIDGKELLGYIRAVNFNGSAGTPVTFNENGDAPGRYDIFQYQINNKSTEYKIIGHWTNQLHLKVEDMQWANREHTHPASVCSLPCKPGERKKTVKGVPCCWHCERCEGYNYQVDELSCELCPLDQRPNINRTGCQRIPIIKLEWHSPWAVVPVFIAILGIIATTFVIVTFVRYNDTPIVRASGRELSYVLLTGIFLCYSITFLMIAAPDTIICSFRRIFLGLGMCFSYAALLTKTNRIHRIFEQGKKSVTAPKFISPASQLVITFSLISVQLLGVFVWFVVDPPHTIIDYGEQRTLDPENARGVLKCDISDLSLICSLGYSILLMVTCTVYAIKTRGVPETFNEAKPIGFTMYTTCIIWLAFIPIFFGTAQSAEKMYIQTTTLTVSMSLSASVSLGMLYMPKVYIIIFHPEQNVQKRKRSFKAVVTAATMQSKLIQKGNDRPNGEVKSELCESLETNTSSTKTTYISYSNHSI

Structure (SMILES) | z-score
C/C(=N\NC(=O)COc1cc(C)cc(C)c1)c1ccc(N2CCOCC2)cc1 | -0.331
COc1ccccc1CN(C)C(=O)c1ccc2c(c1)NC(=O)CS2 | -0.304
Cc1nnc(SCC(=O)Nc2ncc(S(=O)(=O)c3ccc([N+](=O)[O-])cc3)s2)s1 | -0.626
CCNC(=S)NNC(=O)c1cccn(Cc2ccc(Cl)cc2)c1=O | 0.759
CC(=O)Nc1cccc(OCC(=O)NS(=O)(=O)c2ccc(C)cc2)c1 | -0.0467
COC(=O)c1cnc2c(C(F)(F)F)cccc2c1OC | 0.434
C=CCn1c(COc2cccc3cccnc23)nnc1SCC(=O)OC | -0.286
CCCn1c(=N)c(C(=O)NCC2CCCO2)cc2c(=O)n3cccc(C)c3nc21 (stereo not drawn) | 0.17
Cc1cc(=O)c2cccc(Br)c2[nH]1 | 0.656
Cc1cc(C)c(NN=c2c(=O)c3ccccc3c2=O)c(C)c1 | 0.225
COc1ccc(NC(=S)N2CCc3ccccc3C2)cc1 | -0.0767
Cc1ccc2c(CC(=O)OC(C)C(=O)NCc3ccc4c(c3)OCO4)coc2c1 (stereo not drawn) | 2.05
CCCCc1ccc(C2C3=C(CC(C)(C)CC3=O)NC3=C2C(=O)c2ccccc23)cc1 (stereo not drawn) | -0.0176
CCOc1ccc(CCNC(=O)C2CCC(=O)N2CCc2ccccc2)cc1OCC (stereo not drawn) | 0.408
COc1ccc(Cl)cc1S(=O)(=O)N1CCCC(C(=O)NCC(N)=O)C1 (stereo not drawn) | 0.286
Cc1cnc(C(=O)Nc2ccc(C(=O)N3CCCCC3)cc2)cn1 | 0.103
Cc1ccc(S(=O)(=O)N2CCCCCC2)cc1[N+](=O)[O-] | -0.508
NC(=S)Nc1cccc2cc3ccccc3cc12 | -0.237
Cc1nn(Cc2ccc(C(=O)N3N=C(C(F)F)CC3(O)C(F)F)cc2)c(C)c1[N+](=O)[O-] (stereo not drawn) | -0.326
CCCS(=O)(=O)N1CCN(CC2CC3C=CC2C3)CC1 (stereo not drawn) | 0.569
COc1ccc(-c2cccc(C(=O)Nc3ccc(OC)c(OC)c3)c2)cc1 | -0.0958
O=C(CC(=O)c1ccccc1)Nc1cc(C(F)(F)F)ccc1Cl | 0.107

Structure (SMILES) | z-score
CCOc1ccccc1C(=O)N[C@H](C(=O)OCc1cc([N+](=O)[O-])cc2c1OCOC2)C(C)C | 0.0676
O=C(CCc1ccccc1)NC(NC(=S)Nc1cccc(Cl)c1)C(Cl)(Cl)Cl (stereo not drawn) | 0.0798
CCOc1ccc(N=Cc2c(O)n(-c3cccc(C)n3)c(=O)c3ccccc23)cc1 | -0.957
COc1ccc(OC)c(NC(=O)C2CCCCC2)c1 | -0.385
CCOC(=O)c1nc(C)n(-c2ccc(Cl)cc2Cl)n1 | -0.169
Cc1ccc(C(C)C)cc1S(=O)(=O)NCc1cccnc1 | 1.17
O=C(NCc1ccco1)c1cccc(S(=O)(=O)N2CCCCC2)c1 | -0.125
CCOc1ccccc1NC(=O)NC1(C(=O)N2CCOCC2)CCCCC1 | -0.0704
Cc1ccc(CNC(=O)COC(=O)CCCOc2ccc(Cl)cc2Cl)cc1 | -0.31
COC(=O)CSc1nnc(CNc2nc(-c3ccccc3)cs2)n1C | -0.933
O=C(Nc1ncc(Cc2ccccc2)s1)C1CCCO1 (stereo not drawn) | -0.132
COc1ccc(CC(=O)N2N=C(C)CC2(O)C(F)(F)F)cc1 (stereo not drawn) | -0.0924
N#Cc1cc(Cl)c(N2CCOCC2)cc1C#N | -0.177
CC1(C)CC(NC(=O)CCC2CCCC2)CC(C)(C)N1 | 0.678
CCOC(=O)c1c(/N=C/C2=C(O)CCCC2=O)sc(C)c1C | 0.00201
O=C(c1c(Cl)cccc1Cl)N1CCN(c2ccccn2)CC1 | 0.0466
CCOC(=O)c1[nH]c2ccc(OC)cc2c1NC(=O)N1CCOCC1 | 0.0438
O=C(O/N=C1\CCCCC1c1ccc([N+](=O)[O-])cc1[N+](=O)[O-])c1c(F)cccc1F (stereo not drawn) | -0.523
O=C(c1ccc(Cl)c(S(=O)(=O)NCc2ccco2)c1)N1CCN(c2ccccc2F)CC1 | -0.0543
CN1CCN(Cc2cc(COCc3ccccc3)c3cccnc3c2O)CC1 | 6.04e-05
CC1CCN(c2cc(=O)n(C3CCCCC3)c(=O)[nH]2)CC1 | -0.0796
O=C(NC(=S)NCc1cccnc1)c1ccccc1 | -1.53

Structure (SMILES) | z-score
CCOc1ccc2ccccc2c1C(=O)N1CCOCC1 | 0.413
CCNC(=S)Nc1cc(OCC)c(N2CCOCC2)cc1OCC | -0.0264
CC1=CC(C)(C)NC(=S)N1c1ccc2ccccc2c1 | -0.275
Cc1cc(NS(=O)(=O)c2ccc(CC(C)C)cc2)no1 | -0.406
N#Cc1ccccc1N=C1CCCN1Cc1ccccc1 | -1.57
Cc1ccc(C(=O)CSc2nnc(Cn3nnc4ccccc43)n2C)cc1 | 1.03
Cn1nnc(NC(=O)CSc2nnnn2-c2ccc(F)cc2)n1 | 0.0243
CC1CCCN(c2nc3ccccc3nc2C(C#N)S(=O)(=O)c2cccs2)C1 (stereo not drawn) | -1.84
Cc1cccc(CN(CC(=O)N/N=C/c2ccco2)S(=O)(=O)c2ccc(Cl)cc2)c1 | 0.848
CCc1ccc2[nH]c(=O)c(CN(Cc3ccccc3OC)C(=O)Nc3ccccc3OC)cc2c1 | 0.51
Cn1c(=O)c2c(nc(NCCCN3CCOCC3)n2Cc2ccc(Cl)c(Cl)c2)n(C)c1=O | -0.164
Cc1onc(-c2ccccc2)c1C(=O)NC(=S)NNC(=O)c1ccccc1O | -0.543
Cc1nc(NC(=O)c2ccccc2)sc1-c1csc(Nc2ccc(F)cc2)n1 | -0.0195
O=C(O)Cn1c(O)c(C=Nc2ccccc2)sc1=S | -0.223 and 0.51
CC(C)NC(=O)c1onc(CSc2cccc3ccccc23)c1C(=O)O | -0.135
COc1ccc(/C=N/N2CCN(c3ccncc3S(=O)(=O)N3CCCCC3)CC2)cc1 | -0.0781
COc1ccccc1-c1nc(SCC(=O)O)n[nH]1 | 0.65
CC1CCc2nc3ccc(S(=O)(=O)N4CCC(C(=O)NC5CCCC5)CC4)cc3c(C(=O)O)c2C1 (stereo not drawn) | -0.566
O=C(NCCCN1CCOCC1)c1ccc2c(=O)n(CCc3ccccc3)c(=O)[nH]c2c1 | 1.15
CCN(CC)c1ccc(C=C(c2nnnn2-c2ccc(C)cc2)c2nnnn2-c2ccc(C)cc2)cc1 | -0.132
CCC(=O)c1ccc(OCC(O)CNC(C)c2ccccc2)cc1 (stereo not drawn) | 0.0194
Cc1cc(-c2cccnc2)c(C#N)c(SCc2cccc(F)c2)n1 | -0.155

Structure (SMILES) | z-score
CC(=O)N1CCC(N(C(=O)Nc2ccc(F)cc2)C2CCCC2)CC1 | 0.292
COc1ccc(CCNC(=O)Cn2c(=O)oc3ccccc32)cc1OC | 0.281
CCOC(=O)CSc1ccc(-c2nc3cc(C)c(C)cc3[nH]2)cn1 | 0.298
Cn1c(SCc2ccc(C#N)cc2Cl)nc2ccccc21 | -0.224
CCCCC(CCCC)=N/N=C/c1c(O)n(CC)c2cc(C3=NNC(=O)CC3)ccc12 | -0.351
CCOC(=O)Cc1csc(NC(=O)CSc2nnc(-c3ccc(NS(=O)(=O)CC)cc3)o2)n1 | -0.095
Cn1c(SCC(=O)Nc2ccccc2)nnc1-c1ccc(NC(=O)CCc2ccccc2)cc1 | -0.164
C=CCc1ccc(OCc2ccc(C(=O)OC)o2)c(OC)c1 | -0.0312
C=CCN(C(=O)Nc1ccccc1)C1CC(=O)N(c2ccc(OC)cc2)C1=O (stereo not drawn) | -0.258
Cc1cc(F)c(F)c(C(=O)N2CCOCC2)c1 | 0.431
Cc1ccc(S(=O)(=O)Nc2ccc(SC(F)F)cc2)c(C)c1 | 0.288
CCOC(=O)C1CCN(C(=O)COC(=O)CCOc2ccc(C)cc2)CC1 | -0.15
Cc1nc2nc(-c3ccc(Cl)cc3)nn2c(C)c1Cl | 0.322
O=C(Nc1nc2ccc(F)cc2s1)C1=NN(c2ccccc2)C(=O)CC1 | 0.185
CC(C)(C)NC(=O)NC(=O)COc1ccccc1C#N | 0.934
Cc1ccc(CSc2ncnc3c2cnn3Cc2ccccc2)cc1C | -0.239
CN(C(=O)Cn1c(=O)n(CCCCC(=O)NC2CCCC2)c(=O)c2ccccc21)C1CCCCC1 | -0.115
Cc1cccnc1Sc1c([N+](=O)[O-])ncn1C | -0.142
N/C(=N\c1nc2ccccc2o1)NC(=O)C(Cc1ccccc1)N1C(=O)c2ccccc2C1=O (stereo not drawn) | 0.579
Cc1ccnc(SCCn2c(N3CCOCC3)nc3c2c(=O)[nH]c(=O)n3C)n1 | -0.0964
O=C(Nc1ccc(F)cc1)C1CCCN(S(=O)(=O)c2cccc3cccnc23)C1 (stereo not drawn) | 0.729
C#CCn1c(=NC(=O)c2ccc(Br)s2)sc2cccc(OC)c21 | 0.256

Structure (SMILES) | z-score
Cc1cc(S(=O)(=O)NCC(c2ccccc2)c2ccccc2)ccc1-n1cnnn1 | 0.0424
O=C(Nc1cccs1)Nc1c(F)cc(F)cc1Br | 0.103
COc1ccc(C(=O)NC2c3ccccc3-c3ccccc32)cc1 | -0.134
CCCN(CCC)C(=O)Cn1c(=O)n(CCCCC(=O)NC2CCCC2)c(=O)c2ccccc21 | -0.542
COC(=O)c1[nH]c2ccccc2c1NC(=O)CNC1CCCCC1 | -0.161
CCOC(=O)C1(O)CC(C)=NN1C(=O)c1cccc(Cl)c1 (stereo not drawn) | -0.149
CC1CCCN(C(=O)c2ccc3nc[nH]c3c2)C1 (stereo not drawn) | -0.158
Cc1ccc(Cn2ccc(NC(=O)c3noc4c3CCc3ccccc3-4)n2)cc1 | -0.0547
Cc1cc(C)c2cc(C#N)c(NCCCNC(=O)CCC(=O)O)nc2c1 | -0.00468
CC(Nc1c([N+](=O)[O-])c(=O)oc2ccccc12)C(Cl)c1ccccc1 (stereo not drawn) | -0.193
CCC(C)(C)n1nnnc1CN(Cc1ccco1)Cc1cc2cc3c(cc2[nH]c1=O)OCO3 | -0.127
COc1ccc(N2CCN(S(=O)(=O)c3ccc(C(=O)NC4CCCC4)cc3)CC2)cc1 | -0.118
O=C(NCc1ccco1)c1ccccc1-c1nc(-c2ccccc2)no1 | 0.0522
O=C1CCCC2=C1C(c1ccc3c(c1)OCO3)c1c([nH]n(-c3ccccc3)c1=O)N2 (stereo not drawn) | -0.455
Cc1cccc(-n2ccnc2SCC(=O)Nc2nnc(C)s2)c1 | 0.337
COc1ccccc1OCC(=O)Nc1oc(-c2ccccc2)c(-c2ccccc2)c1C#N | 2.87
O=C1OC(Cc2ccccn2)C(O)=C1C1=NCCCCN1 (stereo not drawn) | 0.614
O=C(c1cccc(F)c1)N1CCC(O)(c2cccnc2)CC1 | -0.862
COc1ccccc1NC(=O)Cn1nnc(-c2ccccc2NC(=O)c2cc3ccccc3oc2=O)n1 | -0.267
CCOC(=O)N1CCN(S(=O)(=O)c2cccc3ccc(C)nc23)CC1 | 0.0178

Reference: PubChem BioAssay AID488969 (Vanderbilt High Throughput Screening Facility, 2010)
